Assay results published in the supplement of paper PMC10126150.
Sequences with one replicate were seen in a single cluster, so their values are uncertain.

tested on: ATP; experiment: switch fluorescence ratio, 500 uM ATP over buffer (Cy3 cluster intensity, sum of 5 cycles each) (fold (ratio)); higher = stronger signal-on switching upon ATP binding; sequences stand for … in TCGTCGGCAGCGTCAGATGTGTATAAGAGACAGTTTTTTTTTTTTTTTTTTTTTTTTT…TC; conditions: aptamer strand: ATP DNA aptamer (quencher-CACCTGGGGGAGTATTGCGGAGGAAGG + anchor), 100 nM annealed; ATP concentration: 500 uM; one replicate
How it was run: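 Between each of five buffer/ATP cycles, the flow-cell was stripped with NaOH and re-annealed. Each cycle imaged Cy3-labelled switching-strand clusters, annealed to 100 nM quencher-labelled ATP aptamer on a modified Illumina MiSeq flow-cell, first in selection buffer and then after 15 min with 500 uM ATP at 22 °C. The fluorescence ratio is summed target-cycle over summed buffer-cycle Cy3 intensity per cluster, averaged per switch-domain sequence, with clusters outside 100-1000 RFU excluded.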
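Note: ATP exposure 15 min at 22 °C before imaging.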

Row | Sequence | switch fluorescence ratio
1 | ATTCGCATAT | 2.74
2 | ATTCGCTGAA | 1.05
3 | ATTCGGATAT | 0.996
4 | ATTCGGTCGG | 0.98
5 | ATTCGTAATT | 0.998
6 | ATTCGTATCT | 1.03
7 | ATTCGTCTTT | 0.957
8 | ATTCGTGGTG | 1.02
9 | ATTCGTTCCG | 1.01
10 | ATTCGTTGGG | 0.993
11 | ATTCTAAGAG | 0.993
12 | ATTCTCGGAC | 1.04
13 | ATTCTGATCC | 1
14 | ATTCTTTTAT | 1.02
15 | ATTGAAGTTG | 0.983
16 | ATTGAATAA | 0.975
17 | ATTGACCGAC | 1.56
18 | ATTGACGGTA | 1.07
19 | ATTGAGCACT | 1.05
20 | ATTGAGTTA | 1.03
21 | ATTGATTTGG | 0.978
22 | ATTGCAGGGG | 1.11
23 | ATTGCCACAG | 1.06
24 | ATTGCCGTCC | 1.02
25 | ATTGCCTTGC | 1.05

Row | Sequence | switch fluorescence ratio
26 | ATTGCTGATC | 0.985
27 | ATTGCTTTGC | 1.03
28 | ATTGGAATTC | 0.944
29 | ATTGGCCACG | 1.25
30 | ATTGGCGGCA | 1.01
31 | ATTGGGAACG | 1.01
32 | ATTGGGACTG | 1.03
33 | ATTGGGAGGC | 0.998
34 | ATTGGGGGCA | 0.978
35 | ATTGTACGAC | 1.09
36 | ATTGTATCGT | 0.991
37 | ATTGTATCTC | 0.97
38 | ATTGTATTAA | 0.979
39 | ATTGTATTAG | 0.994
40 | ATTGTCCAGG | 1.53
41 | ATTGTCTTAT | 1.01
42 | ATTGTGAGAT | 0.979
43 | ATTGTGAGGC | 1.42
44 | ATTGTGATCC | 1.01
45 | ATTGTGGCTG | 1.03
46 | ATTGTGTATT | 0.959
47 | ATTGTGTCCC | 1.02
48 | ATTGTGTGTG | 1.02
49 | ATTGTTAAAG | 0.992
50 | ATTGTTATGA | 1.05

Row | Sequence | switch fluorescence ratio
51 | ATTGTTCGGT | 0.985
52 | ATTGTTGC | 1.01
53 | ATTGTTGTAT | 0.967
54 | ATTGTTTAGT | 1.02
55 | ATTTAAAGCT | 1.14
56 | ATTTAACCCA | 1.03
57 | ATTTAATATT | 0.998
58 | ATTTACTGGA | 0.969
59 | ATTTAGAACA | 0.98
60 | ATTTAGGTTG | 0.962
61 | ATTTATAAGA | 1.04
62 | ATTTATATTT | 1.03
63 | ATTTATGGTC | 0.965
64 | ATTTCACTTG | 1.03
65 | ATTTCAGTGC | 0.985
66 | ATTTCCCCGG | 1.71
67 | ATTTCCCCGT | 1.13
68 | ATTTCCGGAG | 3.1
69 | ATTTCCTCT | 1.07
70 | ATTTCGAGCC | 1.05
71 | ATTTCGCGTG | 0.958
72 | ATTTCGTGCT | 0.972
73 | ATTTCTGGGG | 0.98
74 | ATTTGACTGA | 1.02
75 | ATTTGAGCAA | 1.57

Row | Sequence | switch fluorescence ratio
76 | ATTTGCACGT | 1.06
77 | ATTTGCCCTT | 1.07
78 | ATTTGCTCTT | 0.947
79 | ATTTGGAAAT | 0.984
80 | ATTTGGATGA | 0.992
81 | ATTTGGCGGG | 0.979
82 | ATTTGGTTCG | 0.989
83 | ATTTGTACCT | 1.01
84 | ATTTTACTAG | 1.02
85 | ATTTTAGGAT | 0.984
86 | ATTTTCGCAG | 1.33
87 | ATTTTCGCTT | 0.979
88 | ATTTTCGTGA | 1
89 | ATTTTGATTG | 0.957
90 | ATTTTGGATA | 0.971
91 | ATTTTTATAG | 1.06
92 | ATTTTTCGGA | 1.03
93 | CAAAAAAGCC | 1.06
94 | CAAAAACACC | 1.09
95 | CAAAAAGCAT | 0.983
96 | CAAAACGC | 1
97 | CAAAAGATGG | 0.987
98 | CAAAAGATTT | 0.964
99 | CAAAATATAG | 0.973
100 | CAAAATCGTT | 0.985

Row | Sequence | switch fluorescence ratio
101 | CAAAATGATC | 0.96
102 | CAAAATTGAT | 1.01
103 | CAAAATTTG | 0.974
104 | CAAACCAGGC | 1.74
105 | CAAACGG | 1.19
106 | CAAACGGCAG | 1.17
107 | CAAACGGCTT | 0.996
108 | CAAACGGTGA | 0.982
109 | CAAAGAAAGT | 1
110 | CAAAGCCACA | 1.04
111 | CAAAGCGCCG | 1.04
112 | CAAAGCTACG | 1.03
113 | CAAAGCTTAC | 4.21
114 | CAAAGCTTCG | 1.31
115 | CAAAGGATTC | 0.993
116 | CAAAGGCCAT | 1.02
117 | CAAAGGGGCC | 1.07
118 | CAAAGGTAAT | 1.06
119 | CAAAGTGGAT | 1.03
120 | CAAAGTGTTG | 1
121 | CAAATCATAC | 1.06
122 | CAAATCCAAG | 0.99
123 | CAAATCGGTC | 0.921
124 | CAAATCTGTT | 1.03
125 | CAAATGGATC | 0.975

Row | Sequence | switch fluorescence ratio
126 | CAAATGGCAT | 0.983
127 | CAAATTGACT | 1.04
128 | CAAATTTCTG | 0.962
129 | CAACACTTAT | 1.03
130 | CAACAGCTAC | 4.08
131 | CAACATTCAT | 1.01
132 | CAACCCTGAG | 1.05
133 | CAACCGTGGA | 1.03
134 | CAACCTTTTG | 1
135 | CAACGACTAC | 1.6
136 | CAACGATCGG | 1.01
137 | CAACGCGCTT | 1.03
138 | CAACGGCTCG | 1.05
139 | CAACGTATCT | 1.13
140 | CAACTATCGT | 1.04
141 | CAACTATTGG | 1.02
142 | CAACTCAATT | 1.01
143 | CAACTCGGCG | 0.987
144 | CAACTGCCGA | 1.09
145 | CAACTTGTTT | 0.974
146 | CAAGAAAACG | 0.984
147 | CAAGACACCT | 1.29
148 | CAAGAGATTC | 1.01
149 | CAAGAGCCCG | 1.04
150 | CAAGATCCCT | 0.988

Row | Sequence | switch fluorescence ratio
151 | CAAGCAGTTT | 1.04
152 | CAAGCATGTC | 1.04
153 | CAAGCCGTCG | 0.984
154 | CAAGCCTCAT | 1
155 | CAAGCTCAAG | 0.99
156 | CAAGCTCGGC | 1.08
157 | CAAGCTTGTT | 1
158 | CAAGGAAAGC | 1.02
159 | CAAGGAAATG | 0.997
160 | CAAGGAATAT | 1.01
161 | CAAGGAGCAT | 1.08
162 | CAAGGATAGA | 1.05
163 | CAAGGATATG | 1
164 | CAAGGATCGT | 0.961
165 | CAAGGCGGG | 1.02
166 | CAAGGGAGAG | 0.986
167 | CAAGGGAGTT | 1.01
168 | CAAGGTATGA | 0.956
169 | CAAGGTATTA | 0.999
170 | CAAGGTGGCG | 0.958
171 | CAAGTATCTC | 0.999
172 | CAAGTATTCG | 1.02
173 | CAAGTCAGAT | 0.989
174 | CAAGTCTCAG | 1.02
175 | CAAGTGATCA | 0.986

Row | Sequence | switch fluorescence ratio
176 | CAAGTGATGT | 0.976
177 | CAAGTGTTTG | 0.979
178 | CAAGTTAAGA | 0.965
179 | CAAGTTATAG | 1.02
180 | CAAGTTGCTA | 1.01
181 | CAATAAGTAT | 1.02
182 | CAATAGTGCG | 1.05
183 | CAATATACTA | 1.03
184 | CAATATAGCT | 1.02
185 | CAATATGGGG | 0.999
186 | CAATCAAGGC | 1.07
187 | CAATCACTTT | 0.985
188 | CAATCATGT | 0.999
189 | CAATCCTCAA | 1.31
190 | CAATCGCATA | 3.15
191 | CAATCGCGGC | 1.62
192 | CAATCGTATT | 0.983
193 | CAATCTAAAG | 1.01
194 | CAATCTATGT | 0.973
195 | CAATCTATTG | 1
196 | CAATCTTGAT | 1
197 | CAATGAGATG | 0.959
198 | CAATGATCGG | 1.03
199 | CAATGATGGT | 1.01
200 | CAATGATTCA | 1.02
